# Measured values reported in PubChem BioAssay (Tox21).
# Inconclusive results, whose numbers are uncertain, are shown with a selection of clear calls. For some of these results: Where the call is inconclusive, the potency comes from a doubtful curve fit. Calls of active or inactive are those of the source. Unless noted, calls come from the whole dose curve.
# How the values were obtained:
# [1] = target: Estrogen receptor beta (Homo sapiens) (UniProt Q92731); experiment: qHTS assay to identify small molecule agonists of the estrogen receptor beta (ER-beta) signaling pathway (AID 1259377; active = well fitted activation curve with a large enough effect in the signal ratio in the repeat runs, not every such curve was filed as active; inconclusive = weak or mixed curves, or effect the other way; the % refers to the signal ratio; note: potency is the fitted concentration of half-maximal effect; for activation: % is set by controls: 0 for no effect and ±100 for the full control effect); details: ER-beta-UAS-bla HEK293T, beta-lactamase FRET ratio, 16 h; activation: at 92.4 µM (top of the series) unless noted
# Method in brief: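 Ratiometric beta-lactamase FRET read-out came after 2 h substrate loading at room temperature. It followed 16 h compound treatment at 37C of GripTite HEK293T cells carrying a UAS-bla reporter, plated in 2% charcoal-stripped FBS medium.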
# [2] = target: Estrogen receptor beta (Homo sapiens) (UniProt Q92731); experiment: qHTS assay to identify small molecule antagonists of the estrogen receptor beta (ER-beta) signaling pathway (AID 1259378; active = well fitted inhibition curve with a large enough effect in the signal ratio in the repeat runs, not every such curve was filed as active; inconclusive = weak or mixed curves, or effect the other way; inactive = no such curve, though single readings can be large or run the other way; the % refers to the signal ratio; note: % is set by controls: 0 for no effect and ±100 for the full control effect); details: ER-beta-UAS-bla HEK293T, beta-lactamase FRET ratio, 16 h; activity, negative = inhibition: at 92.4 µM (top of the series) unless noted
# Method in brief: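 ER-beta-UAS-bla HEK293T (GripTite) cells in 2% charcoal-stripped FBS medium were preincubated 6 hr at 37C, dosed with compound, then stimulated with 1 nM E2 (final) for 16 hr; beta-lactamase reporter read by B/G FRET fluorescence after 2 hr substrate loading.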
# [3] = target: Thyrotropin receptor (Homo sapiens) (UniProt P16473); experiment: qHTS assay to identify small molecule antagonists of the thyroid stimulating hormone receptor (TSHR) signaling pathway (AID 1259385); details: TSHR-HEK293 cAMP HTRF, TSH-stimulated antagonist mode; activity change, negative = inhibition: at 92.4 µM (top of the series) unless noted; note: nearly all actives have a fitted effect of over 20% in size; note: potency is the fitted concentration of half-maximal effect
# Method in brief: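 TSHR-HEK293 cells were plated and held 18 h at 37C/5% CO2, then given compound plus Ro20-1724 and stimulated with TSH at 1.5 ng/mL final. After 30 min at room temperature, cAMP was detected with cAMP-d2/anti-cAMP-cryptate (1 h) by fluorescence.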
# [4] = target: Progesterone receptor (Homo sapiens) (UniProt P06401); experiment: qHTS assay to identify small molecule antagonists of the progesterone receptor (PR) signaling pathway (AID 1346795; active = well fitted inhibition curve with a large enough effect in the signal ratio in the repeat runs, not every such curve was filed as active; inconclusive = weak or mixed curves; the % refers to the signal ratio; note: potency is the fitted concentration of half-maximal effect; for activity change, negative = inhibition: % is set by controls: 0 for no effect and ±100 for the full control effect); details: PR-UAS-bla HEK293T, beta-lactamase FRET ratio, 16 h; activity change, negative = inhibition: at 92.4 µM (top of the series) unless noted
# Method in brief: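 Antagonist mode with agonist R5020 at 1 nM final and 16 hr incubation at 37C. Reporter was beta-lactamase driven by UAS in HEK293T (PR-UAS-bla), 2% charcoal-stripped serum; signal from LiveBLAzer FRET substrate, 2 hr at room temperature.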
# [5] = qHTS assay to identify small molecule agonists of the progesterone receptor (PR) signaling pathway - cell viability counter screen (AID 1346799); note: potency is the fitted concentration of half-maximal effect; nearly all actives have a fitted effect of over 45% in size
# Method in brief: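 Cytotoxicity measured by CellTiter-Glo luminescence (30 min, RT) in the same wells as the PR beta-lactamase agonist read. Those HEK293T cells had 16 h compound treatment at 37 C in 2% charcoal-stripped FBS medium.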
# [6] = target: Thyrotropin-releasing hormone receptor (Homo sapiens) (UniProt P34981); experiment: qHTS assay to identify small molecule antagonists of the thyrotropin-releasing hormone receptor (TRHR) signaling pathway (AID 1346877; active = well fitted inhibition curve with a large enough effect in the repeat runs, not every such curve was filed as active; inconclusive = weak or mixed curves; note: potency is the fitted concentration of half-maximal effect)
# Method in brief: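 Intracellular calcium fluorescence, read kinetically every second over 3 min, reports TRH-evoked signalling in HEK293 cells carrying TRHR. Test compounds were added 5 min ahead of a 1 nM TRH challenge.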
# [7] = target: Progesterone receptor (Homo sapiens) (UniProt P06401); experiment: qHTS assay to identify small molecule agonists of the progesterone receptor (PR) signaling pathway (AID 1346784); details: PR-UAS-bla HEK293T, beta-lactamase FRET ratio, 16 h; activation: at 92.4 µM (top of the series) unless noted; note: nearly all actives have a fitted effect of over 30% in size; note: potency is the fitted concentration of half-maximal effect
# Method in brief: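 Agonist qHTS: compounds pinned onto 3,000 PR-UAS-bla HEK 293T cells per well in charcoal-stripped serum medium, 16hr at 37C, then beta-lactamase activity measured by LiveBLAzer FRET fluorescence after 2 hours at room temperature.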
# [8] = qHTS assay to identify small molecule antagonists of the progesterone receptor (PR) signaling pathway - cell viability counter screen (AID 1346798; active = well fitted curve in the direction sought with a large enough effect in the repeat runs; inconclusive = weak or mixed curves; inactive = no such curve, though single readings can be large; an effect the other way counts as inactive or inconclusive; note: nearly all actives have a fitted effect of over 50% in size; note: potency is the fitted concentration of half-maximal effect)
# Method in brief: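 Cytotoxicity read as CellTiter-Glo luminescence (30 min, room temperature) in the same wells as the beta-lactamase readout. HEK293T PR-UAS-bla cells in charcoal-stripped 2% FBS received compound and R5020, then 16 h at 37C, 5% CO2.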
# [9] = qHTS assay to identify small molecule agonists of the TGF-beta/Smad signaling pathway (AID 1346859; active = well fitted activation curve with a large enough effect in the signal ratio in the repeat runs, not every such curve was filed as active; inconclusive = weak or mixed curves; the % refers to the signal ratio; note: potency is the fitted concentration of half-maximal effect); details: SBE-bla HEK293T, TGF-beta/Smad beta-lactamase reporter, 5 h; activation: at 76.8 µM (top of the series) unless noted
# Method in brief: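 Fluorescence (ex 405 nm; em 460 and 530 nm) was read 2 h after LiveBLAzer FRET substrate at RT. The preceding compound treatment of overnight-plated SBE-bla HEK293T cells lasted 5 h at 37 C.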
# [10] = qHTS assay to identify small molecule antagonists of the TGF-beta/Smad signaling pathway (AID 1346924; active = well fitted inhibition curve with a large enough effect in the signal ratio in the repeat runs, not every such curve was filed as active; inconclusive = weak or mixed curves; the % refers to the signal ratio; note: potency is the fitted concentration of half-maximal effect); details: SBE-bla HEK293T, TGF-beta/Smad reporter, beta-lactamase ratio; activity, negative = inhibition: at 76.8 µM (top of the series) unless noted
# Method in brief: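 SBE-bla HEK 293T cells were plated overnight, then received compound in DMSO plus TGF-beta1 (added as a 0.25 ng/mL solution) and were incubated 5 h at 37 C. Beta-lactamase reporter activity was read after 2 h at room temperature with LiveBLAzer B/G FRET substrate (ex 405, em 460/530 nm).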
# [11] = target: Thyrotropin-releasing hormone receptor (Homo sapiens) (UniProt P34981); experiment: qHTS assay to identify small molecule agonists of the thyrotropin-releasing hormone receptor (TRHR) signaling pathway (AID 1346891); note: % is set by controls: 0 for no effect and ±100 for the full control effect
# Method in brief: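 Agonist-mode intracellular calcium readout: kinetic fluorescence over 3 min at 1 s intervals after compound addition to TRHR-HEK293 cells (18 h seeded, 2 h dye-loaded at 37 C). Fifteen concentrations, triplicates.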
# [12] = qHTS assay to identify small molecule antagonists of the estrogen receptor beta (ER-beta) signaling pathway - cell viability counter screen (AID 1259382; active = well fitted curve in the direction sought with a large enough effect in the repeat runs; inconclusive = weak or mixed curves; inactive = no such curve, though single readings can be large; an effect the other way counts as inactive or inconclusive; note: potency is the fitted concentration of half-maximal effect; nearly all actives have a fitted effect of over 55% in size)
# Method in brief: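 Cells: ER-beta-UAS-bla HEK293T, 2,000/well, 2% CS-FBS, 6 hr settle. Cpd + E2 (1nM final), 16 hr, 37C/5% CO2. Bla FRET substrate 2 hr RT, then CellTiter-Glo 30 min RT, luminescence.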
# [13] = qHTS assay to identify small molecule agonists of the estrogen receptor alpha (ER-alpha) signaling pathway in the presence of an antagonist - cell viability counter screen (AID 1259386; active = well fitted curve in the direction sought with a large enough effect in the repeat runs; inconclusive = weak or mixed curves; inactive = no such curve, though single readings can be large; an effect the other way counts as inactive or inconclusive;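 note: cells exposed to compounds for 22 h at 37 °C before the viability read; % is set by controls: 0 for no effect and ±100 for the full control effect; nearly all actives have a fitted effect of over 30% in size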)
# Method in brief: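 VM7Luc4E2, stripped-serum pre-culture 5 d; 24hr plating; +ICI-182,780 10.0nM final; cpds 15 conc, 22hr, 37C/5% CO2; CellTiter-Fluor added at 21hr, fluorescence 1hr later.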
# Tags give direction and shape of the fitted curve or compound fluorescence and quenching.
# Sequence of UniProt P34981 (P34981 whole entry, looked up): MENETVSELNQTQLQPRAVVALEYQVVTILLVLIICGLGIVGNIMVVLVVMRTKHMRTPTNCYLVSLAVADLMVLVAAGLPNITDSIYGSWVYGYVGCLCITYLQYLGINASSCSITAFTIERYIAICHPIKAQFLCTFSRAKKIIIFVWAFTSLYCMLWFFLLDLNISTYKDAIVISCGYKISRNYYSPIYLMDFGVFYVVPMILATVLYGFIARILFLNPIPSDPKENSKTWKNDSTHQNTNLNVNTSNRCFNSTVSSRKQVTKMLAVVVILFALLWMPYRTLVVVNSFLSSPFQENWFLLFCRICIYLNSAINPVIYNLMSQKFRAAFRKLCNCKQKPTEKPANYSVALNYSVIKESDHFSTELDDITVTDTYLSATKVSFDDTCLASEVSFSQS
# Sequence of UniProt P06401 (P06401 whole entry, looked up): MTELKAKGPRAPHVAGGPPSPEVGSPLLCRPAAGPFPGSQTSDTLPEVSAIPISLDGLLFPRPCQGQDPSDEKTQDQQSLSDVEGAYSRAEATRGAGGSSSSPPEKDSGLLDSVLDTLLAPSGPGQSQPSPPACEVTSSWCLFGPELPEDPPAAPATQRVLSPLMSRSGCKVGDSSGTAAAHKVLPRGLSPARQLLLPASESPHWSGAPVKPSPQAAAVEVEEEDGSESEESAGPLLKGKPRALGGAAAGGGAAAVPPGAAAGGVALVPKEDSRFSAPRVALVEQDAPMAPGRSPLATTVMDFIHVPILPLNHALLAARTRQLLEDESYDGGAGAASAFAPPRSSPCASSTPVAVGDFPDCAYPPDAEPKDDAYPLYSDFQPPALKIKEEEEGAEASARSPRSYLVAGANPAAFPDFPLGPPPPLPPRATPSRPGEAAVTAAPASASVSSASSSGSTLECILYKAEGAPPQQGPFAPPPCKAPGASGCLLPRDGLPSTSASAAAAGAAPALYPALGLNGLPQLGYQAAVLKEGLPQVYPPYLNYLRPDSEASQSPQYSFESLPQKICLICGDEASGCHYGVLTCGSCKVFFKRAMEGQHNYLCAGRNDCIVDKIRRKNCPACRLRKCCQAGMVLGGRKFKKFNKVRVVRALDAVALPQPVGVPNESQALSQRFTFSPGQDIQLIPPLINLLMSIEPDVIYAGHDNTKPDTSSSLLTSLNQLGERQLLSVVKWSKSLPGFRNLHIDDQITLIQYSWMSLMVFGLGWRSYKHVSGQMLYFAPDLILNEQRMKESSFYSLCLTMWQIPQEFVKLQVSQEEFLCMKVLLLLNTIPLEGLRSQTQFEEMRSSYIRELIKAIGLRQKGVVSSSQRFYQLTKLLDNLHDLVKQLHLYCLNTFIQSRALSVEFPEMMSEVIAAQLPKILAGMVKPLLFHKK
# Sequence of UniProt Q92731 (Q92731 whole entry, looked up): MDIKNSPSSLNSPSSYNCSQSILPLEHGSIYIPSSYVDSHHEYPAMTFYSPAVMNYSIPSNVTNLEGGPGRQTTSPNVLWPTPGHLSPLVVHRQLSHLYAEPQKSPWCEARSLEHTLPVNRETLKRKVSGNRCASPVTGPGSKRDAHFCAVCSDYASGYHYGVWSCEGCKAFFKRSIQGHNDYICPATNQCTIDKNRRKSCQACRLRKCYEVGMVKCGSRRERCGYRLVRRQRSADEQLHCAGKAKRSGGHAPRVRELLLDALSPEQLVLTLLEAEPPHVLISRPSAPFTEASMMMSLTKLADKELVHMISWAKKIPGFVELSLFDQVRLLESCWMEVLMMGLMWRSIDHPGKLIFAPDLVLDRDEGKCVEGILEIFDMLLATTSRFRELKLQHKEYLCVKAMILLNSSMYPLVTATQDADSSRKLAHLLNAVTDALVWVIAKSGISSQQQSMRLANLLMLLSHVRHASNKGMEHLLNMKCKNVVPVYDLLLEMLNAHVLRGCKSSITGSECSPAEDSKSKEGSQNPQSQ
# Sequence of UniProt P16473 (P16473 whole entry, looked up): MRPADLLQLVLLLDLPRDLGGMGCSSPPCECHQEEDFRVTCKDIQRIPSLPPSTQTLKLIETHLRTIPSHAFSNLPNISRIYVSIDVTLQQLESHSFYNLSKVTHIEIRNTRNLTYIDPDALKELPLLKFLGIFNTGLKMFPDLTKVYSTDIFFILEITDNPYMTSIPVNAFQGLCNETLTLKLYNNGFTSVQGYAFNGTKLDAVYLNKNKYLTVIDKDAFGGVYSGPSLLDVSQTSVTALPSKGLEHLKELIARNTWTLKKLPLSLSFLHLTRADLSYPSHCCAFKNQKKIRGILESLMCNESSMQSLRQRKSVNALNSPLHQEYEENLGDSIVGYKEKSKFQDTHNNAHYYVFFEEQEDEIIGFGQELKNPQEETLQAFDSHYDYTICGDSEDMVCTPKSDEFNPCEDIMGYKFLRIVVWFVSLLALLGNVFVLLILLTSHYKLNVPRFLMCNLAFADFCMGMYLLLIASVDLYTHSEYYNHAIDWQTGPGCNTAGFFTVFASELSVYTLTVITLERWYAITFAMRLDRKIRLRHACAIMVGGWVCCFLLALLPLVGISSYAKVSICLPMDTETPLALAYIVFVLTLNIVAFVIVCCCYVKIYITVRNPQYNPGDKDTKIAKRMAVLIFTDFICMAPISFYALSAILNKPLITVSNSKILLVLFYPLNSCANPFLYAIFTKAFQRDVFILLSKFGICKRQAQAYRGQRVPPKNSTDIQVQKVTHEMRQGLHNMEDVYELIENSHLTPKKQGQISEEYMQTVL
smiles,measurement,setting,value
C1=CC2C3C=CC(C3)C2C1 (centres undefined),Potency,[1],"inconclusive: 15.1 µM [activator, full curve]"
same,Potency,[2],inactive
same,Potency,[3],"inconclusive: 268 nM [falling, partial curve, poor fit]"
same,Potency,[4],"inconclusive: 21.3 µM [falling, partial curve, poor fit]"
same,Potency,[5],"inconclusive: 67.3 µM [cytotoxic, single point]"
same,Potency,[6],"inconclusive: 0.0296 µM [inhibitor, full curve, poor fit]"
C=CC(=O)NC(C)(C)CS(=O)(=O)O,activation,[1],inconclusive: 3.32%
same,"activity, negative = inhibition",[2],inconclusive: -25%
same,Potency,[7],"inconclusive: 9.48 µM [activator, full curve, poor fit]"
same,Potency,[8],inactive
same,Potency,[9],"inconclusive: 31.4 µM [rising, partial curve]"
same,"activity, negative = inhibition",[10],inconclusive: 3.86%
CCC(C)(C)OC,Potency,[1],inactive
same,"activity, negative = inhibition",[2],inconclusive: -27.8%
same,Potency,[5],"inconclusive: 68.2 µM [cytotoxic, single point]"
NCCc1ccc(O)c(O)c1,activation,[1],inconclusive: 7.35%
same,"activity, negative = inhibition",[2],inconclusive: 50.5% [at 42.5 µM]
same,Potency,[4],inactive
same,Potency,[11],inactive
CCCCN(CCCC)c1ccc(C(=O)c2ccccc2C(=O)O)c(O)c1,Potency,[1],"inconclusive: 13.8 µM [rising, full curve]"
same,"activity, negative = inhibition",[2],inconclusive: -52.9%
same,Potency,[12],"inconclusive: 15.5 µM [cytotoxic, full curve]"
same,Potency,[3],inactive
same,activation,[7],inconclusive: -12.9%
same,Potency,[4],"inconclusive: 3.89 µM [rising, partial curve, poor fit]"
same,Potency,[5],active: 24.6 µM
same,Potency,[9],"inconclusive: 0.555 µM [rising, full curve]"
same,Potency,[6],"inconclusive: 34.2 µM [inhibitor, partial curve]"
same,Potency,[10],"inconclusive: 393 nM [rising, full curve]"
CCCCOC(O)CC (centres undefined),Potency,[1],inactive
same,Potency,[2],inactive
same,Potency,[13],inactive
same,Potency,[8],"inconclusive: 27.3 µM [rising, single point]"
same,Potency,[5],"inconclusive: 0.243 µM [cytotoxic, single point]"
